For 88 compounds, survival results are on record in PubChem BioAssay AID463173 (ICCB-Longwood Screening Facility, Harvard Medical School, 2010).

Out of some 52,000 compounds screened, about 4,300 (8.3%) were called active. Cut-off read from the data, not from the text of the source: active = survival mostly below about 52% (no sharp cut-off); inactive = mostly above about 56%. This is one part of the list.

In this test the test system is DeltatarO mutant. Briefly: S. aureus survival, RN4220 and DeltatarO strains – OD600, teichoic acid synthesis inhibitors, primary screen (AID 463173). The conditions noted are these: S. aureus RN4220 wild type/DeltatarO growth, OD600, 18 h, hits give low values, screened at 18.75 µg/mL (by protocol).
`Cc1ccc2nc(-c3cccc(NC(=O)c4ccc(Br)o4)c3)oc2c1`: the survival was active: 15%.

Take `CNC(=O)c1nc(-c2ccccc2)oc1C`: the survival is inactive: 87%.

As for `COc1ccccc1NCc1cccn1-c1nnc(N2CCCCCC2)s1`, the survival was inactive: 67%.

For the compound `Cc1cc(C)n(-c2nc3ccccc3nc2Nc2ccc(Cl)c(Cl)c2)n1`, the survival was active: 0%.

With `COC(=O)c1ccc(NC(=O)CC2Nc3cc(C)c(C)cc3NC2=O)cc1` (stereo not drawn), the survival is inactive: 56%.

`Cc1cccc(OCC(=O)Nc2c(C(=O)N3CCN(c4ccccc4F)CC3)oc3ccccc23)c1`: the survival is inactive: 79%.

For `CCCCC(=O)OCc1cc(=O)n2nc(C3CCCCC3)sc2n1`, the survival is inactive: 115%.

For `CCC1CN(C(=O)Nc2cc(C)ccc2OC)c2cc(Cl)ccc2O1` (stereo not drawn), the survival was active: 44%.

Consider `CCOC(=O)CSc1nc2cc3c(cc2c(=O)n1CCCC(=O)NCCc1ccc(OC)c(OC)c1)OCO3`, for which the survival was active: -2%.

As for `CCOC(=O)c1sc(N2C(=O)c3oc4ccc(C)cc4c(=O)c3C2c2ccccc2F)nc1C` (stereo not drawn), the survival is inactive: 182%.

Consider `COc1cccc(CNC(=O)c2cc(S(=O)(=O)N3CCCCCC3)cn2C)c1`, for which the survival is inactive: 82%.

In the case of `CCOC(=O)c1c(NC(=O)CSc2cn(CCNC(=O)c3ccc(OC)c(OC)c3)c3ccccc23)sc2c1CCCC2`, the survival was inactive: 80%.

As for `Cc1ccc(NC(=O)N2CCc3cc(S(=O)(=O)N4CCC(C)CC4)ccc32)cc1F`, the survival was inactive: 105%.

As to `CCOC(=O)c1ccc(N2C(=O)c3[nH]nc(-c4ccc(OC)cc4)c3C2c2ccccc2Cl)cc1` (stereo not drawn), the survival is inactive: 97%.

As for `CCCc1cc(=O)n2[nH]c(NC(=O)c3ccccc3Cl)nc2n1`, the survival is inactive: 111%.

Turning to `CCOC(=O)N1CCN(C(=O)CN(c2cccc(Cl)c2)S(=O)(=O)c2ccccc2)CC1`, the survival is inactive: 59%.

Regarding `COc1ccc(C2c3c(n(C)c4ccccc34)C(=O)N2CC(=O)Nc2cc(Cl)ccc2C)cc1` (stereo not drawn), the survival is inactive: 89%.

Take `O=C(Nc1ccccc1)N(Cc1cccs1)c1ccc(F)cc1`: the survival was inactive: 78%.

For the compound `Cc1ccccc1C(=O)NC1CCN(Cc2nnnn2C2CCCC2)CC1`, the survival is inactive: 101%.

Take `Cc1ccc(-n2c(SCC(N)=O)nc(O)c(C)c2=O)cc1`: the survival is inactive: 103%.

For the compound `COc1ccc(C)cc1NC(=O)Cn1c(=O)c(C(F)(F)F)nc2ccccc21`, the survival was inactive: 94%.

In the case of `CN(C)S(=O)(=O)c1ccc2c(c1)N(CC(=O)NCc1ccc(F)cc1)C(=O)CS2`, the survival was inactive: 124%.

For the compound `COc1ccc(Oc2c(C(F)(F)F)oc3c(CN4CCCC(C)C4)c(O)ccc3c2=O)cc1` (stereo not drawn), the survival is inactive: 68%.

Regarding `Cc1ccc(NC(=O)Cn2cc3c(n2)CCCC3)c(Cl)c1`, the survival is inactive: 92%.

Take `COc1ccccc1N1CCN(c2ccc(=O)n(CC(=O)NCc3ccc(OC(C)C)cc3)n2)CC1`: the survival is inactive: 97%.

Take `COc1ccc(NC(=O)Cn2c(=O)n(Cc3nc(-c4ccccc4)no3)c(=O)c3cc4c(cc32)OCO4)c(OC)c1`: the survival was inactive: 94%.

Regarding `O=C(Nc1ccc2oc(-c3cccnc3)nc2c1)c1ccc(Br)cc1`, the survival was inactive: 65%.

Consider `Cc1nn(CC(=O)NCc2ccc(Cl)cc2)c(=O)c2cc3sccc3n12`, for which the survival is inactive: 123%.

Regarding `Cc1ccc(N2CCN(S(=O)(=O)c3cc(C(=O)Nc4cc(Cl)cc(Cl)c4)ccc3F)CC2C)cc1` (stereo not drawn), the survival is inactive: 72%.

As for `CC(=O)c1ccc(NC(=O)C2Cc3ccccc3N2C(=O)c2ccccc2)cc1` (stereo not drawn), the survival is inactive: 107%.

As for `CC(=O)Nc1nonc1-c1nnc(SCC(=O)Nc2cccc(F)c2)n1-c1ccccc1`, the survival was active: 19%.

Consider `Cc1ccc(CN2CCCn3nc(C(=O)NC(C)C)cc3C2=O)cc1`, for which the survival was active: 0%.

As to `COC(=O)c1scc(-c2ccc(C)cc2)c1S(=O)(=O)Nc1ccc(F)cc1F`, the survival was inactive: 87%.

For `O=C(O)c1ccc(Nc2nc3ccccc3n3cnnc23)cc1`, the survival is inactive: 95%.

Consider `O=C1C=CC(=O)N1c1ccc(-c2cnc(-c3ccc(N4C(=O)C=CC4=O)cc3)nc2)cc1`, for which the survival is inactive: 73%.

Take `Cc1cccc(-c2nc3scc(CCNS(=O)(=O)c4ccc(Oc5ccccc5)cc4)n3n2)c1`: the survival is inactive: 88%.

As for `COc1ccc(-n2nc(C(=O)Nc3cc(OC)c(OC)c(OC)c3)c(=O)n(C)c2=O)cc1`, the survival is inactive: 129%.

`O=C(Nc1ccc2oc(-c3cccnc3)nc2c1)c1ccc(-c2ccccc2OC(F)(F)F)o1`: the survival was inactive: 61%.

With `COc1ccc(-c2cc3ccc(O)c(CN4CCC(C)CC4)c3oc2=O)cc1`, the survival was inactive: 71%.

Regarding `CC1=C(c2ccc(C)cc2)S(=O)(=O)NC1=NCCCN1CCN(c2ccccc2F)CC1`, the survival was inactive: 74%.

Consider `CCOc1ccc(CCNC(=O)c2nn(-c3ccc(OC)c(Cl)c3)c(=O)c3c2c2ccccc2n3C)cc1OCC`, for which the survival was inactive: 90%.

Turning to `Cn1c(=O)c2cc(C(=O)NCCCN3CCN(c4cccc(Cl)c4)CC3)sc2c2ccccc21`, the survival is inactive: 48%.

Turning to `Cc1nn(-c2ccccc2)c(-n2cccc2)c1C(=O)NCCc1ccc(Cl)cc1`, the survival is active: 4%.

Turning to `COc1ccccc1NC(=O)NC1(C(=O)N2CCc3ccccc32)CCCCC1`, the survival is inactive: 93%.

In the case of `COc1ccc(C2CC(=O)N(Cc3ccc(F)cc3)c3ccccc3S2)cc1OC` (stereo not drawn), the survival is inactive: 100%.

On to `COc1ccccc1C(=O)NCCn1cc(SCc2ccc(C)cc2)c2ccccc21`, for which the survival was active: 22%.

`CCCCCn1c(=O)[nH]c2cc(C(=O)NCc3ccc(Cl)cc3)ccc2c1=O`: the survival is inactive: 71%.

As for `CCC1CCc2nc3sc(C(=O)Nc4ccc(C)cc4)c(N)c3cc2C1` (stereo not drawn), the survival was inactive: 64%.

For `COc1ccc(OC)c2sc(N3CCN(C(=O)c4ccc5c(c4)CCCC5)CC3)nc12`, the survival was inactive: 88%.

For `CCc1ccccc1NS(=O)(=O)c1ccc2c(c1)CCN2C(=O)C1CC1`, the survival is inactive: 90%.

Consider `CCc1ccc(-c2nn(CC(=O)NC3CCCCC3)c3c2cnc2ccc(C)cc23)cc1`, for which the survival is inactive: 69%.

For the compound `c1ccc(N2CCN(Cc3cccn3-c3nnc(N4CCN(C5CCCCC5)CC4)s3)CC2)cc1`, the survival was inactive: 76%.

Regarding `O=C(CN1CCN(Cc2cccc(Cl)c2)C1=O)NCc1ccc(F)cc1`, the survival is inactive: 79%.

Turning to `CCN(c1ccccc1C)S(=O)(=O)c1ccc(N2CCCCS2(=O)=O)cc1`, the survival is inactive: 125%.

As for `CCOC(=O)c1ccc(CN(Cc2ccc(Cl)cc2Cl)S(=O)(=O)c2ccc(F)c(C)c2)cc1`, the survival is inactive: 89%.

Turning to `CC(C)Cn1c(=O)c2sccc2n2c(CCCC(=O)NCCc3ccc(Cl)cc3)nnc12`, the survival was inactive: 90%.

With `O=C(Nc1ccc(Br)cc1)c1ccc(F)c(S(=O)(=O)N2CCCc3ccccc32)c1`, the survival is inactive: 90%.

As for `CC(=O)Nc1ccc(N(C)C(C)=O)cc1`, the survival was inactive: 97%.

For the compound `CN=C1SC(CC(=O)NC)C(=O)N1C` (stereo not drawn), the survival is inactive: 86%.

For `O=C(COc1ccc(Br)cc1Cl)Nc1ncn[nH]1`, the survival is inactive: 91%.

Turning to `COc1ccc(OCC(=O)Nc2ccc3c(c2)nc(CCNC(=O)c2ccco2)n3C)cc1`, the survival was inactive: 63%.

Regarding `CCc1ccc(NC(=O)CSc2nc(-c3ccccc3Cl)nc3c2Cc2c(CO)cnc(C)c2O3)cc1`, the survival is inactive: 117%.

With `COCCCNC1CC(=O)N(c2ccc(OC)cc2)C1=O` (stereo not drawn), the survival is inactive: 75%.

Take `CC(C)NC(=O)c1ccc(-n2c(-c3ccccc3)cc3c2CCCC3)cc1`: the survival was inactive: 77%.

As for `CCC(=O)c1cc2c(cc1NC(=O)c1cccc(Cl)c1)OCCO2`, the survival is inactive: 105%.

With `CCc1nnc2c(Nc3cccc(F)c3)nc3ccc(C(=O)c4ccccc4)cc3n12`, the survival was inactive: 76%.

As to `CCOC(=O)c1cccc(NC(=O)c2cc3c(=O)n(C)c4ccccc4c3n2C)c1`, the survival was inactive: 72%.

`Cc1cc(C)cc(NC(=O)c2ccc3c(c2)nnn3C2CCCC2)c1`: the survival was inactive: 128%.

On to `Cc1ccc(CNC(=O)CCN2C(=O)COc3ccc(C)cc32)cc1`, for which the survival was active: 50%.

On to `Cc1ccc(NC2=C(CC(=O)O)C(c3ccc(F)cc3)N(c3ccc(C)cc3)C2=O)cc1` (stereo not drawn), for which the survival was inactive: 58%.

As to `CC(C)c1cnc2c(c1SCC(=O)Nc1ccc(OC(F)(F)F)cc1)c(=O)n(C)c(=O)n2C`, the survival is inactive: 78%.

With `O=C(c1cc(-c2cccc(Cl)c2)on1)N1CCN(c2ccccc2)CC1`, the survival is active: 23%.

As to `O=C(CCCN1C(=O)c2cccnc2Oc2ccc(Cl)cc21)NCc1ccccc1F`, the survival is inactive: 75%.

As to `CCN(CC)CCOC(=O)c1ccc(NC(=O)c2nn(C)c3c2COc2ccccc2-3)cc1`, the survival was inactive: 60%.

As to `Cc1ccc(S(=O)(=O)C(CNC(=O)c2ccc(F)c(F)c2)c2ccco2)cc1` (stereo not drawn), the survival was active: -5%.

For `CCC(=O)C1=C(c2ccc(Cl)cc2)N(C(=O)CC)n2c(C)nnc2S1`, the survival is inactive: 108%.

Consider `CCS(=O)(=O)c1ccc(O)c(Nc2cc(C)nc(SC)n2)c1`, for which the survival is inactive: 100%.

Take `O=C(CSc1oc(-c2ccco2)nc1S(=O)(=O)c1ccc(Br)cc1)c1ccccc1`: the survival was active: 47%.

Consider `CCCCn1c(=O)c2oc3ccccc3c2n(Cc2cccc(F)c2)c1=O`, for which the survival was inactive: 66%.

Turning to `Nc1cc(N)nc(SCC(=O)N2CCCCC2)n1`, the survival is inactive: 101%.

Consider `CCC(C)Cn1c(/C=C/c2ccccc2)nc2ccccc21` (stereo not drawn), for which the survival is active: -1%.

On to `CCOc1ccc(-c2nonc2NC(=O)c2oc3cc(C)c(C)cc3c2C)cc1OCC`, for which the survival was active: 43%.

Consider `Cc1ccc(C)c(-n2c3nc(=O)[nH]c(=O)c-3cc3c(C)nn(-c4ccccc4)c32)c1`, for which the survival was inactive: 92%.

Take `COc1cccc(CNS(=O)(=O)c2cc3[nH]c(=O)c(=O)[nH]c3cc2C)c1`: the survival was inactive: 67%.

With `CCc1ccc(NC(=O)c2ccc(F)c(S(=O)(=O)N3CCC4(CC3)OCCO4)c2)cc1`, the survival is inactive: 84%.

Consider `CCc1ccc(N2CCn3c2nc2c3c(=O)n(C/C=C/c3ccccc3)c(=O)n2C)cc1`, for which the survival is inactive: 71%.

Take `Cc1ccc(CNC(=O)CC(C)CC2=NS(=O)(=O)c3ccccc3N2)cc1` (stereo not drawn): the survival is inactive: 84%.

On to `COc1ccc(NC(=O)c2c(NCc3ccc(N(C)C)cc3)sc3c2CCC3)cc1`, for which the survival is inactive: 76%.
